Experimental data reported in PubChem BioAssay AID602342 (Broad Institute, 2012).
“And” between values parts separate entries of the source, which are not always exact repeats. Identical values can stand only once. Hit rate of the full screen: of about 340,000 compounds, about 1,000 (0.29%) were called active. This list was built around the results that the source calls inconclusive (neither active nor inactive); the mix of calls is not that of the screen.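 How the source made its calls: active means mean replicate activation score at least 90 and every replicate individually at or above 90; inconclusive means only one of the two criteria met; inactive means neither criterion met.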

Experiment: miR-122 Renilla sensor signal increase in Huh7, primary screen, miR-122 inhibitor project, cell-based, single point, plate reader (AID 602342);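 further: higher luciferase means less miR-122 activity so hits act as miR-122 inhibitors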
Details: Huh7 miR-122 Renilla luciferase sensor, 48 h, hits give high values, neutral wells = 0, positive control = 100; at 12.5 µM unless noted

Compound | activation (reporter increase)
CCn1c(SCC(=O)Nc2ccc(N3CCOCC3)cc2)nnc1-c1ccc(OC)cc1 | active: 142%
COC(=O)N/N=C\c1ccc(OC/C=C/c2ccccc2)cc1 | inactive: -4.47%
Cc1c(C(=O)OCc2ccccc2)[nH]c2c1C(=O)CC(c1ccco1)C2 (stereo not given) | active: 139%
COc1ccc(S(=O)(=O)NCCN2CCOCC2)c2ccccc12 | inconclusive: 116%
CCOc1cc(C)c(C(C)C)cc1S(=O)(=O)n1ccc(C)n1 | inconclusive: 92.4%
OCC(O)C1OCOC(C(O)CO)C1O (stereo not given) | inconclusive: 93%
COC(=O)c1[nH]c2ccccc2c1NC(=O)CN1CCCc2ccccc21 | inconclusive: 138%
O=C(Nc1ccc2c(c1)[C@@H]1C[C@@H](CC(=O)N3CCOCC3)O[C@H](CO)[C@@H]1O2)NC1CCCC1 | inactive: -2.34% [at 16.7 µM]
CCN(CC)S(=O)(=O)c1ccc(NS(=O)(=O)c2ccc(C)c(C)c2)cc1 | active: 183%
C[C@@H]1CN([C@@H](C)CO)C(=O)c2cc(NC(=O)CCC(F)(F)F)ccc2O[C@@H]1CN(C)C(=O)Nc1ccc2c(c1)OCO2 | inconclusive: 91.7% [at 16.7 µM]
C/C=C/c1ccc([C@H]2[C@H](CO)N(c3nc(CC)cs3)[C@H]2CNC(C)C)cc1 | inconclusive: 133% [at 16.7 µM]
C[C@@H]1CN([C@H](C)CO)S(=O)(=O)c2ccc(-c3ccccc3)cc2O[C@H]1CN(C)C(=O)C1CCCCC1 | inconclusive: 95.2% [at 16.7 µM]
C/C=C/c1ccc([C@H]2[C@@H](CO)N(C(=O)CC)[C@@H]2CNC(=O)CC)cc1 | inactive: -11.8% [at 16.7 µM]
Cc1sc(NC(=O)c2ccccc2)c(C(c2ccc(Cl)cc2)N2CCN(CCO)CC2)c1C (stereo not given) | inconclusive: 94.7%
C[C@@H]1CCCCO[C@@H](CN(C)C(=O)Nc2ccc(F)cc2)[C@H](C)CN([C@@H](C)CO)C(=O)c2cc(NS(=O)(=O)c3cccs3)ccc2O1 | inactive: -3.84% [at 16.7 µM]
CC1CCCCN1C(=O)COC(=O)c1cc(Cl)c2c(c1)OCO2 (stereo not given) | inactive: -6.05%
COc1ccc(S(=O)(=O)Nc2cc(C)c(O)c(S(=O)(=O)c3ccccc3)c2)cc1 | active: 129%
O=S(=O)(Nc1ccccc1)c1ccc(Oc2ncc(C(F)(F)F)cc2Cl)cc1 | inconclusive: 94.2%
Cc1ccc(C)c(S(=O)(=O)Nc2ccc(C(=O)N3CCOCC3)cc2)c1 | inconclusive: 92.3%
O=C(COn1nnc2ccccc21)NCC1CCCCC1 | inactive: -0.469%
Nc1c(C(=O)c2ccccc2)sc2nsc(SCCN3CCCC3)c12 | inactive: -12%
CC(C)C(=O)Nc1ccc2c(c1)C(=O)N(C)[C@H]1CC[C@H](CC(=O)NCc3cccc(F)c3)O[C@@H]1CO2 | inconclusive: 300% [at 16.7 µM]
COc1cccc(N2CC(O)=C(c3nc4ccccc4s3)C2=N)c1 | inconclusive: 91.5%
Cc1ccc(-c2nnc(Nc3ccc4c(c3)OCO4)c3ccccc23)cc1S(N)(=O)=O | active: 180%
COc1ccc(C2CCCCCN2Cc2nc3ccccc3c(=O)n2CC(N)=O)cc1 (stereo not given) | inconclusive: 91%

Compound | activation (reporter increase)
Cc1ncc(CO)c2c1Oc1nc(-c3ccccc3)nc(SCC(=O)Nc3cccc(O)c3)c1C2 | inactive: -11.7%
CCN(CC)S(=O)(=O)c1ccc(S(=O)(=O)Nc2ccc3c(c2)oc2ccccc23)cc1 | inconclusive: 97.9%
CC(C)c1ccc(NC(=O)CNS(=O)(=O)c2ccc(F)cc2)cc1 | inactive: -1.56%
C[C@H](CO)N1C[C@H](C)[C@H](CN(C)CC2CCCCC2)Oc2c(NC(=O)C3CCOCC3)cccc2C1=O | inconclusive: 104% [at 16.7 µM]
O=S(=O)(NCC1CCCO1)c1cc(Br)c(Br)s1 (stereo not given) | inconclusive: 96.9%
CCCCNC(=S)N1CCN(CC)CC1 | inactive: 8.8%
Cc1cc(C(=O)N2CCc3ccccc32)n(-c2ccccc2)n1 | active: 115%
C[C@H](CO)N1C[C@H](C)[C@@H](CN(C)Cc2ccc(Cl)c(Cl)c2)Oc2ccc(NC(=O)CCC(F)(F)F)cc2C1=O | inactive: 2.56% [at 16.7 µM]
O=C(c1ccccc1)N1C[C@H]2[C@@H](c3ccccc31)[C@@H](CO)N2C(=O)c1cccc(F)c1 | inconclusive: 100% [at 16.7 µM]
COCCNC(=O)C(=O)Nc1ccc2c(c1)N(S(=O)(=O)c1cccs1)CCC2 | inactive: 8.89%
COc1ccc(OC)c(C(c2nnnn2C2CCCC2)N2CCN(c3ccccc3F)CC2)c1 (stereo not given) | inconclusive: 99.1%
CCOc1cc(C)c(S(=O)(=O)Nc2ccc(F)cc2)cc1C | active: 304%
S=c1[nH]cnc2scc(-c3ccccc3)c12 | inactive: 9.18%
Cc1ccc(NC(=O)N(C2=NCC(C)S2)c2ccccc2)cc1 (stereo not given) | inconclusive: 125%
c1ccn2c(SCc3ccc4c(c3)OCO4)nnc2c1 | inactive: -0.425%
C[C@H]1CN([C@@H](C)CO)S(=O)(=O)c2ccc(C#Cc3ccncc3)cc2O[C@@H]1CN(C)S(=O)(=O)c1ccccc1 | inconclusive: 106% [at 16.7 µM]
CCOC(=O)c1[nH]c2c(c1C)C(=O)CC(c1ccco1)C2 (stereo not given) | inconclusive: 109%
Cc1ccc(N(CC(=O)NCc2cccs2)S(=O)(=O)c2cccs2)cc1 | active: 182%
C[C@H](CO)N1C[C@H](C)[C@H](CN(C)Cc2ccc(C(=O)Nc3ccccc3N)cc2)Oc2ccc(NC(=O)C3CCCCC3)cc2CC1=O | inconclusive: 106% [at 16.7 µM]
CCOC(=O)CSc1nnc(-c2ccccc2NC(=O)c2ccccc2)o1 | inactive: -7.6%
O=S(=O)(NCCC1=CCCCC1)c1ccccc1Cl | inconclusive: 104%
CCOC(=O)c1c(S(=O)(=O)Nc2cccc(Cl)c2)c(C)n(C)c1C | inconclusive: 92%
CCN(C[C@H]1[C@H](c2ccccc2)[C@@H](CO)N1C(=O)COC)S(C)(=O)=O | inconclusive: 91.7% [at 16.7 µM]
C[C@H](CO)N1C[C@H](C)[C@H](CN(C)S(C)(=O)=O)Oc2ccc(NC(=O)Nc3cccc4ccccc34)cc2CC1=O | inactive: -1.05% [at 16.7 µM]
COc1ccccc1CNC(=O)C[C@H]1CC[C@H]2[C@@H](COc3ccc(NS(=O)(=O)c4ccc(C)cc4)cc3C(=O)N2C)O1 | inconclusive: 807% [at 16.7 µM]

Compound | activation (reporter increase)
O=C(O)c1cc(NN=C2CCN(Cc3ccccc3)CC2)ccc1Cl | inactive: -7.1%
CCCC#Cc1cnc2c(c1)C(=O)N([C@H](C)CO)C[C@H](C)[C@H](CN(C)C(=O)c1ccccc1)O2 | inconclusive: 98% [at 16.7 µM]
COc1ccc(NS(=O)(=O)c2cc(NC(=O)c3ccc(Cl)cc3)ccc2N2CCOCC2)cc1 | inconclusive: 102%
CN[C@H]1CCc2cc(OC)c(OC)c(OC)c2-c2ccc(N(C)CC(OC)OC)c(=O)cc21 | active: 130%
COCC(=O)N(C)C[C@@H]1Oc2ncc(C#Cc3cccnc3)cc2C(=O)N([C@H](C)CO)C[C@H]1C | active: 113% [at 16.7 µM]
CCN(CC(=O)NCc1cccs1)C(=O)c1cccc(S(=O)(=O)Nc2cccc(C)c2)c1 | inconclusive: 95.2%
CCOc1ccccc1N1CCN(C(=O)c2cccc(-c3ccc(O)cc3)c2)CC1 | active: 156%
O=C(COC(=O)C1CCCN1C(=O)C12CC3CC(CC(C3)C1)C2)c1ccc(Br)cc1 (stereo not given) | inactive: -1.22%
Cc1ccc(N2C(=O)C3C4CC(=O)C(c5ccccc54)C3C2=O)cc1 (stereo not given) | inconclusive: 112%
CCc1ccc(-c2cc(C)no2)cc1S(=O)(=O)NC(C)Cc1ccco1 (stereo not given) | inconclusive: 91.2%
COc1cccc(C(=O)Nc2ccc(C(=O)O)cc2)c1 | active: 113%
O=C(Nc1ccccc1)c1cc([N+](=O)[O-])ccc1NC1CCCCC1 | active: 123%
O=C(OCCN=C1NS(=O)(=O)c2ccccc21)c1ccccc1 | active: 215%
O=C(CSc1ncccn1)Nc1ncc(C(F)(F)F)cc1Cl | inconclusive: 94.3%
COc1cccc(N2CCN(C(=O)c3oc4ccccc4c3NC(=O)CCc3cc(OC)no3)CC2)c1 | inconclusive: 106%
CCCNC(=O)C[C@H]1CC[C@H]2[C@H](COc3ccc(NC(=O)Cc4cccs4)cc3C(=O)N2C)O1 | active: 167% [at 16.7 µM]
O=S(=O)(/N=C(/Nc1ccc(Cl)c(S(=O)(=O)Nc2ccccc2Cl)c1)c1ccc(F)cc1)c1ccccc1 | inconclusive: 168%
C[C@H](CO)N1C[C@H](C)[C@@H](CN(C)Cc2ccc(C(F)(F)F)cc2)Oc2c(cccc2N(C)C)C1=O | inconclusive: 98% [at 16.7 µM]
Cc1cccc(-n2ncc3c(N4CC(C)CC(C)C4)ncnc32)c1 (stereo not given) | inactive: -6.17%
CCCN(C)C[C@@H]1OCCCC[C@H](C)Oc2ccc(NC(=O)Nc3ccc4c(c3)OCO4)cc2C(=O)N([C@H](C)CO)C[C@@H]1C | inactive: -7.35% [at 16.7 µM]
CC(=O)c1cccc(OCC(=O)Nc2ccccc2N2CCOCC2)c1 | active: 93.3%
C[C@H](CO)N1C[C@H](C)[C@@H](CN(C)CC2CCCCC2)Oc2c(NC(=O)c3ccncc3)cccc2C1=O | active: 127% [at 16.7 µM]
COc1ccc(N(C(=O)c2ccncc2)S(=O)(=O)c2ccc3c4c(cccc24)C(=O)N3C)cc1 | inconclusive: 95.5%
CC1=CC(C)(C)Nc2ccccc21 | inactive: -5.95% and inactive: -6.72%
CCOc1ccc(Br)cc1S(=O)(=O)Nc1ccc(Cl)c(S(=O)(=O)N(CC)c2ccccc2)c1 | active: 281%
